From patent publication US20240052065A1 (Boehringer Ingelheim, published 2024)
Substitutions are numbered along the chain they refer to.

B1: bispecific binding molecule CDH3/TRAILR2v5 (bispecific antibody, human IgG1, kappa)
heavy: QVQLQESGPGLVKPSETLSLTCTVSGGSISSYYWSWFRQPAGKGLEWIGRIYSSGSTNYNPSLKSRVTMSVDTSKNQFSLKLSSVTAADTAVYYCARGMGVTGLFDYWGQGTLVTVSSASTKGPSVFPLAPSSKSTSGGTAALGCLVKDYFPEPVTVSWNSGALTSGVHTFPAVLQSSGLYSLSSVVTVPSSSLGTQTYICNVNHKPSNTKVDKRV[letters of human IgG1 Fc with changes not shown]GGSGGSSSELTQDPAVSVALGQTVRITCQGDSLRSYYASWYQQKPGQAPVLVIYGKNNRPSGIPDRFSGSSSGNTASLTITGAQAEDEADYYCNSRDSSGNHVVFGGGTKLTVLGGGGSGGGGSGGGGSGGGGSEVQLVQSGGGVERPGGSLRLSCAASGFTFDDYGMSWVRQAPGKGLEWVSGINWNGGSTGYADSVKGRVTISRDNAKNSLYLQMNSLRAEDTAVYYCAKILGAGRGWYFDLWGKGTTVTVSS
light: DIVMTQSPDSLAVSLGERATINCKSSQSVLYSSNNKNYLAWYQQKPGQPPKLLIYWASTRESGVPDRFSGSGSGTDFTLTISSLQAEDVAVYYCQQYYSTMYTFGQGTKLEIKRTVAAPSVFIFPPSDEQLKSGTASVVCLLNNFYPREAKVQWKVDNALQSGNSQESVTEQDSKDSTYSLSSTLTLSKADYEKHKVYACEVTHQGLSSPVTKSFNRGEC
notes: also called CDH3/TR2v5
B2: bispecific binding molecule CDH3/TRAILR2v6 (bispecific antibody, human IgG1, kappa)
heavy: QVQLQESGPGLVKPSETLSLTCTVSGGSINNYYWTWIRQPAGKGLEWIGRIYSSGSTNYTPSLKSRVTMSVDTSKNQFSLKLSSVTAADTAVYFCAREGYNDGYGYFDHWGQGTLVTVSSASTKGPSVFPLAPSSKSTSGGTAALGCLVKDYFPEPVTVSWNSGALTSGVHTFPAVLQSSGLYSLSSVVTVPSSSLGTQTYICNVNHKPSNTKVDKRV[letters of human IgG1 Fc with changes not shown]GGSGGSSSELTQDPAVSVALGQTVRITCQGDSLRSYYASWYQQKPGQAPVLVIYGKNNRPSGIPDRFSGSSSGNTASLTITGAQAEDEADYYCNSRDSSGNHVVFGGGTKLTVLGGGGSGGGGSGGGGSGGGGSEVQLVQSGGGVERPGGSLRLSCAASGFTFDDYGMSWVRQAPGKGLEWVSGINWNGGSTGYADSVKGRVTISRDNAKNSLYLQMNSLRAEDTAVYYCAKILGAGRGWYFDLWGKGTTVTVSS
light: B1 light with N34K, M101F, Y102R, L110V
notes: also called CDH3/TR2v6
B3: bispecific binding molecule CDH3/TRAILR2v4 (bispecific antibody, human IgG1, kappa)
heavy: QVQLQESGPGLVKPSETLSLTCTVSGGSISGYYWSWIRQPAGKGLEWIGRIYTSGNTIYNPSLKSRVTMSVDTSKNQFSLRLTSVTAADTAVYYCARGNPLATYFGYWGQGTLVTVSSASTKGPSVFPLAPSSKSTSGGTAALGCLVKDYFPEPVTVSWNSGALTSGVHTFPAVLQSSGLYSLSSVVTVPSSSLGTQTYICNVNHKPSNTKVDKRV[letters of human IgG1 Fc with changes not shown]GGSGGSSSELTQDPAVSVALGQTVRITCQGDSLRSYYASWYQQKPGQAPVLVIYGKNNRPSGIPDRFSGSSSGNTASLTITGAQAEDEADYYCNSRDSSGNHVVFGGGTKLTVLGGGGSGGGGSGGGGSGGGGSEVQLVQSGGGVERPGGSLRLSCAASGFTFDDYGMSWVRQAPGKGLEWVSGINWNGGSTGYADSVKGRVTISRDNAKNSLYLQMNSLRAEDTAVYYCAKILGAGRGWYFDLWGKGTTVTVSS
light: B1 light with V3E
notes: also called CDH3/TR2v4

The binders below were run against T1, recombinant human CDH3 [EC2-EC3] (human, UniProt P22223 216-440, limits assumed) (assay: SPR (ProteOn XPR36), bispecific captured on protein A/G, CDH3 as analyte, 1:1 Langmuir fit).
T1 construct: no separate entry is named for EC3; also called HuCDH3_EC2-EC3; EC2-EC3 peptide

| Binder | Kd [nM] |
| --- | --- |
| B1 | 29.8 |
| B2 | 35.1 |
| B3 | 1.06 |

What follows are binders tested against T2, recombinant human CDH3, full-length (human, UniProt P22223 partial chain, limits assumed) in the same assay as above.
T2 construct: also called HuCDH3 full-length; human full-length CDH3

| Binder | Kd [nM] |
| --- | --- |
| B1 | 2.43 |
| B2 | 3.19 |
| B3 | 5.36 |

What follows are binders tested against T3, recombinant human CDH3 [EC1-EC2] (human, UniProt P22223 partial chain, limits assumed) in the same assay as above.
T3 construct: also called HuCDH3 EC1-EC2

| Binder | Kd [nM] |
| --- | --- |
| B1 | 2.76 |
| B2 | 2.79 |
| B3 | 1.62 |
